Results taken from PubChem BioAssay AID624418 (National Center for Advancing Translational Sciences (NCATS), 2012).
Among all 410,000 compounds or so, about 530 (0.13%) were called active. This list was built around the results that the source calls inconclusive (neither active nor inactive); the mix of calls is not that of the screen. Calls come from the whole dose curve; as a rule, active = well fitted inhibition curve with a large enough effect; inconclusive = small, poorly fitted or top-dose-only effect, or another doubt; inactive = no such curve, though single readings can be large or run the other way. Where the call is inconclusive, the potency comes from a doubtful curve fit.
% is set by controls: 0 for no effect and ±100 for the full control effect; potency is the fitted concentration of half-maximal effect.

Experiment: qHTS of GLP-1 Receptor Inverse Agonists: Cytotox Screen
Conditions: HEK293 cAMP-luciferase reporter cells, luminescence, 24 h; activity change, negative = inhibition: at 38.3 µM (top of the series) unless noted
Method in brief: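 Luminescence readout: signal drop marks cytotoxicity. Plated cells grew 12 h at 37 °C, 5% CO2, received 23 nL compound for 24 h, then got luciferase reagent, read after 12 min at RT.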
For `CCc1ccc(/C=C2\SC(=S)N(CCC(=O)NCCCN3CCOCC3)C2=O)cc1`, the Potency was inconclusive: 10 µM [inhibitor, partial curve].
In the case of `CCOc1ccccc1CNCc1cccn1-c1nnc(N2CCN(c3ccccc3)CC2)s1`, the Potency was inconclusive: 28.2 µM [inhibitor, single point].
In the case of `CCN(CC)CCNC(=O)C(=O)Nc1ccc2c(c1)N(S(=O)(=O)c1cccs1)CCC2`, the Potency was inconclusive: 12.6 µM [inhibitor, partial curve, poor fit].
For `c1ccc(COc2ccc(OCCCNC3CCCC3)cc2)cc1`, the Potency was inconclusive: 28.2 µM [inhibitor, single point].
In the case of `Cc1ccc(NC(=O)CNC(=O)c2cccc(Cl)c2)nc1`, the Potency was inconclusive: 11.2 µM [inhibitor, single point].
In the case of `CC1CC(C)CN(S(=O)(=O)c2ccc(NC(=O)c3ccc(=O)[nH]c3)cc2)C1` (stereo not drawn), the Potency was inconclusive: 14.1 µM [inhibitor, partial curve, poor fit].
For `CN(C)CCNC(=O)C12CC3(C)CC(C)(CC(C)(C3)C1)C2`, the “activity change, negative = inhibition” value was inactive: -22.7%.
For `COc1ccc(-c2c(-c3ccc(OC)c(C)c3O)n[nH]c2C)cc1`, the Potency was inconclusive: 28.2 µM [inhibitor, single point].
With `CCc1ccc(NC(=O)C(=O)NCC(c2cccnc2)N2CCN(c3ccc(F)cc3)CC2)cc1` (stereo not drawn) the “activity change, negative = inhibition” value was inactive: -4.43%.
With `CCOc1ccccc1C(=O)NCC(=O)NCCSc1ccc(Br)cc1` the Potency was inconclusive: 28.2 µM [inhibitor, single point].
For `Cc1ccc(OCCCCn2nnc3sc4c(c3c2=O)CCCC4)cc1`, the “activity change, negative = inhibition” value was inactive: -1.82%.
In the case of `O=C1CN(C(=O)c2cccc(Br)c2)c2ccccc2N1`, the Potency was inconclusive: 28.2 µM [inhibitor, single point].
In the case of `CC1CCN(C(=S)NC(=O)c2ccccc2Br)CC1`, the Potency was inconclusive: 28.2 µM [inhibitor, single point].
In the case of `CCCCNc1c(-c2ccc(OC)c(SC3CCCCC3)c2)nc2cc(C)ccn12`, the Potency was inconclusive: 28.2 µM [inhibitor, partial curve, poor fit].
For `COc1ccc(-c2noc(N(c3nc(-c4ccc(OC)c(OC)c4)no3)c3ccccc3OC)n2)cc1OC`, the Potency was inconclusive: 17.8 µM [inhibitor, single point].
For `CN1/C(=C/C(=S)NC(=O)C2(C)CC2(Cl)Cl)C(C)(C)c2ccccc21` (stereo not drawn), the Potency was inconclusive: 12.6 µM [inhibitor, single point].
For `O=[N+]([O-])c1ccccc1C=NNC(=S)NN=Cc1ccccc1[N+](=O)[O-]`, the Potency was inconclusive: 5.62 µM [inhibitor, partial curve].
In the case of `O=[N+]([O-])c1ccccc1S(=O)(=O)N(CC(O)CN1CCCCC1)c1ccccc1` (stereo not drawn), the “activity change, negative = inhibition” value was inactive: 7.26%.
With `Cc1cc(C)n(-c2nc(SCC(=O)O)c3c4c(sc3n2)COC(C)(C)C4)n1` the Potency was inconclusive: 12.6 µM [inhibitor, single point].
In the case of `CCC1CN(C(=O)N2CCC(C(=O)NCCc3ccccc3Cl)CC2)c2cc(C)ccc2O1` (stereo not drawn), the “activity change, negative = inhibition” value was inactive: -13.1%.
With `Cc1ccccc1CNc1ccc(C(CC(N)=O)NC(=O)c2ccccc2)cc1[N+](=O)[O-]` (stereo not drawn) the Potency was inconclusive: 11.2 µM [inhibitor, partial curve, poor fit].
For `OC(CN=c1sc2ccccc2n1CC(O)COc1ccccc1)COc1ccccc1` (stereo not drawn), the Potency was inconclusive: 28.2 µM [inhibitor, single point].
For `COCCN1CCN(C(=O)c2cc(COc3ccc(F)cc3F)on2)CC1`, the “activity change, negative = inhibition” value was inactive: 8.46%.
With `CNc1ccccc1C(C)(C)c1cc(-c2cccc(Br)c2)no1` the “activity change, negative = inhibition” value was inactive: -1.76%.
In the case of `CN(C)CC/C=C1/c2ccccc2Sc2c(O)cc(Cl)cc21`, the Potency was inconclusive: 14.1 µM [inhibitor, single point].
With `Cc1nn(C)c(C(=O)NNC(=S)NC2CCCCC2)c1Cl` the Potency was inconclusive: 10 µM [inhibitor, partial curve, poor fit].
For `Oc1ccc(-c2cn3ccccc3n2)cc1O`, the Potency was inconclusive: 15.8 µM [inhibitor, single point].
With `CC1(OC(=O)C2CCCC2)C(=O)C=C2C=C3CCCCN3C=C2C1=O` (stereo not drawn) the Potency was inconclusive: 2 µM [inhibitor, partial curve, poor fit].
With `Cc1nc(N)sc1N=Nc1ccc(Br)cc1` the Potency was inconclusive: 31.6 µM [inhibitor, single point].
For `Cc1ccc(C(=O)N/C(=C/c2ccc(-c3cccc([N+](=O)[O-])c3)o2)C(=O)NCCCN(C)C)cc1`, the Potency was inconclusive: 28.2 µM [inhibitor, single point].
With `CCOC(=O)c1c(C)n(C)c2ccc(O)c(CN3CCCCC3)c12` the Potency was inconclusive: 15.8 µM [inhibitor, single point].
For `CC(C)=N/N=C1/NC(=O)C(CC(=O)Nc2cc(Cl)ccc2C)S1` (stereo not drawn), the Potency was inconclusive: 10 µM [inhibitor, single point].
For `Cc1ccc2nc(-c3ccc(SCC(=O)Nc4nc(C)cs4)nc3)[nH]c2c1`, the activity change, negative = inhibition was inactive: 1.96% [at 1.53 µM].
For `O=C(COC(=O)c1nc(Cl)c(Cl)c(Cl)c1Cl)NCc1ccccc1`, the Potency was inconclusive: 12.6 µM [inhibitor, single point].
In the case of `CCN(CC)S(=O)(=O)c1ccc(C(=O)NC(=S)N2CCN(c3ccccc3O)CC2)cc1`, the “activity change, negative = inhibition” value was inactive: -19.3%.
In the case of `CCC(C(=O)Nc1ccncc1)c1ccccc1` (stereo not drawn), the “activity change, negative = inhibition” value was inactive: -11.9%.
For `COc1ccccc1C1CC(c2ccco2)=NN1c1ccccc1` (stereo not drawn), the “activity change, negative = inhibition” value was inactive: 170%.
In the case of `O=C(NC1=NCCS1)c1cc(Cl)ccc1Cl`, the “activity change, negative = inhibition” value was inactive: 3.73%.
For `N#Cc1ccccc1NC(=O)Nc1cccc(Cl)c1`, the “activity change, negative = inhibition” value was inactive: 0.234%.
With `COc1ccc(S(=O)(=O)Nc2cc3c4c(oc3c3ccccc23)CC(C)(C)CC4=O)cc1` the Potency was inconclusive: 8.91 µM [inhibitor, partial curve].
With `COCCOC(=O)C1=C(C)NC2(O)c3ccccc3C(=O)C12O` (stereo not drawn) the Potency was inconclusive: 1.58 µM [inhibitor, partial curve, poor fit].
For `Cc1ccc(-c2cc(C(=O)NCc3ccco3)no2)cc1`, the “activity change, negative = inhibition” value was inactive: 3.02%.
In the case of `CCOc1ccc(C(=O)c2ccc(OCC)c(N)c2)cc1N`, the Potency was inconclusive: 12.6 µM [inhibitor, single point].
In the case of `O=S(=O)(c1ccc2nnn(O)c2c1)N1CCOCC1`, the “activity change, negative = inhibition” value was inactive: 0.122%.
With `COc1ccc(CC(=O)NC2CCS(=O)(=O)C2)cc1` (stereo not drawn) the “activity change, negative = inhibition” value was inactive: -2.36%.
In the case of `Nn1cnnc1N/N=C/c1ccc(F)cc1`, the Potency was inconclusive: 28.2 µM [inhibitor, single point].
With `O=S(=O)(NCCNc1ncc(C(F)(F)F)cc1Cl)C(F)(F)F` the Potency was inconclusive: 12.6 µM [inhibitor, single point].
For `COC(=O)c1cc(NS(=O)(=O)c2ccc(N3CCCCC3)c([N+](=O)[O-])c2)cc(C(=O)OC)c1`, the Potency was inconclusive: 31.6 µM [inhibitor, partial curve, poor fit].
For `O=C(/C=C/c1c(Cl)cccc1Cl)Nc1ccncc1`, the Potency was inconclusive: 10 µM [inhibitor, single point].
For `Cc1cccc(NC(=S)NC2CCCCC2)n1`, the Potency was inconclusive: 12.6 µM [inhibitor, single point].
In the case of `Cc1csc(NC(C)c2nc3cc(C(F)(F)F)ccc3n2CCCO)n1` (stereo not drawn), the “activity change, negative = inhibition” value was inactive: 4.78%.
In the case of `Cc1cc(C)nc(-n2nc(C)cc2NC(=O)CN2CCCC2)n1`, the Potency was inconclusive: 28.2 µM [inhibitor, single point].
For `C=CCn1c(-c2csc3c2CCC(C)C3)n[nH]c1=S` (stereo not drawn), the Potency was inconclusive: 12.6 µM [inhibitor, partial curve].
With `CCN1C(=O)/C(=C2/C=CC=CN2C)OC1=S` the Potency was inconclusive: 11.2 µM [inhibitor, partial curve, poor fit].
With `CCc1ccc(C2c3[nH]c4ccccc4c3CCN2C(=O)CN2CCN(CC)CC2)cc1` (stereo not drawn) the Potency was inconclusive: 10 µM [inhibitor, partial curve, poor fit].
With `COc1cccc(C(=O)N2c3nc(-c4ccco4)nn3C3(CCCCC3)[C@@H]3CCCC[C@@H]32)c1` the “activity change, negative = inhibition” value was inactive: -29.2%.
In the case of `Cc1ccc(C(O)(c2ccccc2)c2ccccc2C(C)N(C)C)c(C)c1` (stereo not drawn), the Potency was inconclusive: 10 µM [inhibitor, partial curve, poor fit].
For `CN(C)c1ccc(N=Nc2ccccc2C(=O)OCC(=O)N2CCCC2)cc1`, the Potency was inconclusive: 31.6 µM [inhibitor, partial curve, poor fit].
With `CCN1CCN(c2sc(S(C)(=O)=O)nc2S(=O)(=O)c2ccc(C)cc2)CC1` the “activity change, negative = inhibition” value was inactive: -19.7%.
In the case of `CSc1ccccc1C(=O)N1CCN(c2cccc(Cl)c2)CC1`, the Potency was inconclusive: 11.2 µM [inhibitor, single point].
In the case of `CC1=CC(C)(C)NC(=S)N1c1cccc2ccccc12`, the Potency was inconclusive: 14.1 µM [inhibitor, partial curve].
In the case of `Cc1cccc(C)c1C(O)c1ncc(-c2cccc(F)c2)[nH]1` (stereo not drawn), the “activity change, negative = inhibition” value was inactive: 0.703%.
In the case of `C/C(=C\C(=O)c1cccnc1)Nc1ccc(O)cc1`, the Potency was inconclusive: 28.2 µM [inhibitor, single point].
For `Cc1ccc2oc(-c3cccc(NC(=S)NC(=O)/C=C/c4ccco4)c3)nc2c1`, the Potency was inconclusive: 11.2 µM [inhibitor, single point].
With `C[C@H](CO)N1C[C@H](C)[C@H](CN(C)Cc2ccncc2)Oc2ccc(NC(=O)Nc3ccc(C(F)(F)F)cc3)cc2CC1=O` the Potency was inconclusive: 1.41 µM [inhibitor, full curve, poor fit].
In the case of `CCc1cc(C(=O)N2CCc3c([nH]c4ccccc34)C2c2ccc(OC)cc2F)no1` (stereo not drawn), the “activity change, negative = inhibition” value was inactive: 0.775%.
For `CNC(=S)N(C)/N=C1/C(=O)N(Cc2c(Cl)cccc2Cl)c2ccccc21`, the Potency was inconclusive: 28.2 µM [inhibitor, single point].
With `CC1(Cc2ccc(C(F)(F)F)o2)C(=O)Nc2ccc(-c3cccc(C(F)(F)F)c3)cc21` (stereo not drawn) the Potency was inconclusive: 12.6 µM [inhibitor, single point].
